The text below walks through data of PMC3307775.

Amino acid sequences for entries named in this document (tags omitted). A change or cut given only in a name is not applied to a line headed by its entry. Chains listed by the source or under a name are the forms on record and can include a tag or linker. Residues count along the entry.
UniProt P22455, residues 22-802: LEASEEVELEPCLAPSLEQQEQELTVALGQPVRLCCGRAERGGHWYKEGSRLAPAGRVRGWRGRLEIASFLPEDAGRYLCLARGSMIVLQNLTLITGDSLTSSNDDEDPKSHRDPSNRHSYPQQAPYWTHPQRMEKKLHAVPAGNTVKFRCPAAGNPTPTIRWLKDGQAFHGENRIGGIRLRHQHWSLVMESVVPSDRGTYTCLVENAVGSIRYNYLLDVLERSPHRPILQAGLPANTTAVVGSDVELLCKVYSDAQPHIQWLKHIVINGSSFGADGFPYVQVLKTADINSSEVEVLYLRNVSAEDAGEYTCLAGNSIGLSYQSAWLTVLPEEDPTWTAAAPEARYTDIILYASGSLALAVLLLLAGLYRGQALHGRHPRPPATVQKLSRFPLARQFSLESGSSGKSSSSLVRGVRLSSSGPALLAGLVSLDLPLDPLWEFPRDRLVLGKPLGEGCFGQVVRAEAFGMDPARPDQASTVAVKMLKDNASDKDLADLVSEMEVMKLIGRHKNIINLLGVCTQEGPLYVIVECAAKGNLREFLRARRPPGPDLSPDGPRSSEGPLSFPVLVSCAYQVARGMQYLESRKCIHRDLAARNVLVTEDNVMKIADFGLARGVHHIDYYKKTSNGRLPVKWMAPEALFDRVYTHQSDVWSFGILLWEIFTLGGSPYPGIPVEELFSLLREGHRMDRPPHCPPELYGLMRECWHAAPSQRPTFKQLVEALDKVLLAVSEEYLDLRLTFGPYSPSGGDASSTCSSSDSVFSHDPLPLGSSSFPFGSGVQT
Human full-length FGFR1βIIIC on T-Rex 293 cells (without KLB) (P11362, form named): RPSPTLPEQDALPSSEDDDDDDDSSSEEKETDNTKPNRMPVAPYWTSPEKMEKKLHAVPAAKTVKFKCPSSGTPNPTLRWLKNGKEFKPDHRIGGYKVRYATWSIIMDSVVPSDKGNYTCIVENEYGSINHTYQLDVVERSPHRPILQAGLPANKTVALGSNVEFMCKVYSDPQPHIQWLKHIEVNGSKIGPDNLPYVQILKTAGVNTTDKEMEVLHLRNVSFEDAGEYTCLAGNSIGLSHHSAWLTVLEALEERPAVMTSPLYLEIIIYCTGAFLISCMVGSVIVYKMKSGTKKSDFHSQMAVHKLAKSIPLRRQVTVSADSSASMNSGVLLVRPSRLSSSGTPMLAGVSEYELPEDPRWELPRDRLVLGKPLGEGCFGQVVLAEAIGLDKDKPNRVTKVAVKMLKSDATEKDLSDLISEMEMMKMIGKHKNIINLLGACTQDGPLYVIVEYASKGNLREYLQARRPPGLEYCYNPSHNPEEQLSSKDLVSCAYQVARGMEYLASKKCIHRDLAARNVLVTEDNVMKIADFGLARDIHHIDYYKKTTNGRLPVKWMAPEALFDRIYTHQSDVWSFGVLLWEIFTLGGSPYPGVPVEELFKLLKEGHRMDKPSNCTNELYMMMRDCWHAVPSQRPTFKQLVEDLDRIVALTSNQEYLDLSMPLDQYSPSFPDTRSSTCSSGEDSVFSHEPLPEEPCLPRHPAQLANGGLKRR
UniProt O95750, residues 25-216: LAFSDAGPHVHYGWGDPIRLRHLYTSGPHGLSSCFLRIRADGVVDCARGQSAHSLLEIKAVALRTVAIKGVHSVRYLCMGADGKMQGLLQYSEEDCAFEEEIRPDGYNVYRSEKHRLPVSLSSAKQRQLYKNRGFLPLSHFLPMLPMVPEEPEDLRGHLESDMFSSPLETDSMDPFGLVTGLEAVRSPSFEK

No constants are given. Whether binding was seen depends on the method and setting. For some assays here: Binding seen in cells or lysates may run through a third protein. Some results given as binding are weak or reduced against the parent protein; the word gives no strength.

For assay [1], the target named is T1, Murine betaKlotho (KLB) on T-Rex 293 cells (without transfected FGFR) (murine) (UniProt Q99N32).
T1 sequence: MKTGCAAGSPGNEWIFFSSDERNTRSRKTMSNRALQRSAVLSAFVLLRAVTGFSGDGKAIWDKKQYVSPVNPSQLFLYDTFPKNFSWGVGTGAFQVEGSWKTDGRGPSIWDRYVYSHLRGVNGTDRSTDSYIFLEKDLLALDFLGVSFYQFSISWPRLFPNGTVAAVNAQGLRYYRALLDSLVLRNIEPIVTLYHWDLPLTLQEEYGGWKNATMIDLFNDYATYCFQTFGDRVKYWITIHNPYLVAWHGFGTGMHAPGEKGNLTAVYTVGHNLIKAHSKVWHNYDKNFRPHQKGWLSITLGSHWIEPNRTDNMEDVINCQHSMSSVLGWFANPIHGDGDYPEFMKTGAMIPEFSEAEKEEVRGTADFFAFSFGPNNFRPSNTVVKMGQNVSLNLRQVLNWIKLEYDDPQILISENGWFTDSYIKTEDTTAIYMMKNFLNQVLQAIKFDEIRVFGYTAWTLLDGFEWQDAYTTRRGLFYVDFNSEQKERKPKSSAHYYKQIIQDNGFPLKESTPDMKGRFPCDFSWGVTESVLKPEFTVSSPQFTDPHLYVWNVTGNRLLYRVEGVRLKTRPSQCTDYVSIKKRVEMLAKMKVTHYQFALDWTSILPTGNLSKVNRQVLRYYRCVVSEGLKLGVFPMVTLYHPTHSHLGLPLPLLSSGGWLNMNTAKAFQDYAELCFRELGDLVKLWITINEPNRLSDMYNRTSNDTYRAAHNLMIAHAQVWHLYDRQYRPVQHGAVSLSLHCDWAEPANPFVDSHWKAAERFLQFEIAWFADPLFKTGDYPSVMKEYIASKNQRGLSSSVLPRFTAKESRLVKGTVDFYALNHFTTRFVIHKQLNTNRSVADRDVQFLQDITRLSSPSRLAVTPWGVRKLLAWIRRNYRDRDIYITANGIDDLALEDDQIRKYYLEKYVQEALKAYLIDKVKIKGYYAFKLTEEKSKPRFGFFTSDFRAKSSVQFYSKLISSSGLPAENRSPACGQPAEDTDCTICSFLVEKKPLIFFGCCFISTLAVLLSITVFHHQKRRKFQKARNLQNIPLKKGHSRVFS
Description: radioligand binding; dose-dependent competition: graded concentrations of unlabeled FGF21, FGF19 or FGF1 with 2 ng/ml ^125I-FGF19 on T-Rex 293 cells expressing FGFR1-KLB, FGFR4-KLB, KLB alone or FGFR4 alone; only the binder purified.

Assay [2] concerns the target Human full-length FGFR4 on T-Rex 293 cells (without KLB) (human) (UniProt P22455). The assay is described as above.
Assay [3] concerns the target T2, FGFR1-KLB complex on T-Rex 293 cells (inducible human FGFR1βIIIC and constitutive murine KLB) (human | murine) (UniProt P11362+Q99N32). Nature of the assay: radioligand binding; competition at one concentration: unlabeled FGF21, FGF19 or FGF1 at 1 µg/ml (text: FGF1 at 100 ng/ml) with 2 ng/ml ^125I-FGF19 on T-Rex 293 cells expressing FGFR1-KLB, FGFR1, FGFR4-KLB, FGFR4 or KLB; only the binder purified.

Assay [4] deals with T3, FGFR4-KLB complex on T-Rex 293 cells (inducible human FGFR4 and constitutive murine KLB) (human | murine) (UniProt P22455+Q99N32). The description is as above.
The target of assay [5] is T1, Murine betaKlotho (KLB) on T-Rex 293 cells (without transfected FGFR) (murine). Described as above.
The target in assay [6] is Human full-length FGFR4 on T-Rex 293 cells (without KLB) (human) (UniProt P22455). Described as above.
Assay [7] deals with T2, FGFR1-KLB complex on T-Rex 293 cells (inducible human FGFR1βIIIC and constitutive murine KLB) (human | murine). Nature of the assay: cross-linking; covalent affinity chemical cross-linking of ^125I-FGF19 bound to the surface of T-Rex 293 cells; only the binder purified.
Assay [8] shares this target. Description: radioligand binding; 2 ng/ml ^125I-FGF1 or ^125I-FGF19 on parental T-Rex 293 cells and cells expressing FGFR1-KLB, FGFR1, FGFR4-KLB, FGFR4 or KLB (30 ng/ml Tet induction); cell surface bound radioactivity by γ-counter; only the binder purified.
Assay [9] deals with T3, FGFR4-KLB complex on T-Rex 293 cells (inducible human FGFR4 and constitutive murine KLB) (human | murine). The assay is described as above.
The target of assay [10] is T1, Murine betaKlotho (KLB) on T-Rex 293 cells (without transfected FGFR) (murine). Described as above.
The target of assay [11] is Human full-length FGFR1βIIIC on T-Rex 293 cells (without KLB) (human) (UniProt P11362). The assay is described as above.

As to “Human FGF19 with 6×His tag at the N-terminus (from UniProt O95750 25-216) (ligand)”, the binding result in assay [1] is recorded as “binds”; in [2], “binds weakly”; in assay [3], “binds”; in assay [4], “binds”; in [5], “binds”; in assay [6] it was “binds weakly”. Also, the binding result is recorded as “binds” in [7]; “binds” in [8]; “binds” in assay [9]; “binds” in assay [10]; “no binding (tested: 2 ng/ml)” in assay [11].
